This passage reports relative growth results from the supplement of paper PMC9446081.

Among all 39,000 compounds or so, about 220 (0.56%) showed activity. The list shows a part of the results.
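Further: static incubation at 37 °C against the wild-type strain, values averaged over two biological replicates.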

The subject of this experiment is Escherichia coli K-12 BW25113. Kind of experiment: relative growth (OD600 normalised to plate interquartile mean) (fraction); higher = less growth inhibition, active = 0.2 or less. As to conditions: 50 µM; LB; incubation time: overnight (16-24 h).
Take `Cc1noc(C)c1NC(=O)Nc1ccc2c(c1)C(=O)N([C@@H](C)CO)C[C@@H](C)[C@H](CN(C)Cc1ccc(Cl)c(Cl)c1)OCCCC[C@H](C)O2`: the relative growth was inactive: 1.01. The same measure for `C[C@H]1CN([C@@H](C)CO)C(=O)c2cc(C#CC3(O)CCCC3)cnc2O[C@H]1CN(C)C(=O)C1CCCCC1`: inactive: 0.982. For the compound `COc1ccc([C@@H]([C@H](Cc2ccccc2)OC(C)=O)N2C[C@H]3[C@@H]([C@@H](O)c4ccccc4)ON(C)[C@H]3[C@@H]2Cc2ccccc2)cc1`, the relative growth is inactive: 1.04. Regarding `C[C@H](CO)N1C[C@H](C)[C@H](CN(C)C(=O)Nc2ccccc2)Oc2ccc(NC(=O)CCCCCC(=O)Nc3ccccc3N)cc2C1=O`, the relative growth was inactive: 0.989. As for `C[C@@H]1CN([C@@H](C)CO)C(=O)Cc2cc(NC(=O)Nc3cccc4ccccc34)ccc2O[C@@H]1CN(C)Cc1ccncc1`, the relative growth is inactive: 1.02. For `C[C@H]1CN([C@@H](C)CO)C(=O)c2cccc(NC(=O)Nc3ccc(C(F)(F)F)cc3)c2O[C@@H]1CN(C)Cc1ccc(Cl)c(Cl)c1`, the relative growth is inactive: 0.926.

`C[C@@H]1CCCCO[C@H](CN(C)C(=O)Nc2ccc3c(c2)OCO3)[C@@H](C)CN([C@H](C)CO)C(=O)c2cc(NC(=O)c3ccncc3)ccc2O1`: the relative growth is inactive: 1.

Take `C[C@@H]1CN([C@H](C)CO)S(=O)(=O)c2ccc(Br)cc2O[C@@H]1CN(C)S(=O)(=O)c1ccc(F)cc1`: the relative growth is inactive: 0.892.

As for `CN[C@@H]1[C@H](O[C@H]2[C@H](O[C@H]3[C@H](O)[C@@H](O)[C@H](NC(=N)N)[C@@H](O)[C@@H]3NC(=N)N)O[C@@H](C)[C@]2(O)C=O)O[C@@H](CO)[C@H](O)[C@H]1O`, the relative growth is inactive: 0.888. The same measure for `C[C@H]1CN([C@@H](C)CO)C(=O)CCCn2cc(nn2)CO[C@H]1CN(C)S(=O)(=O)c1cn(C)cn1`: inactive: 0.995; for `C[C@@H]1CN([C@H](C)CO)S(=O)(=O)c2ccc(C#Cc3ccccc3)cc2O[C@@H]1CN(C)S(=O)(=O)c1cn(C)cn1`: inactive: 1.02. With `C[C@H](CO)N1C[C@H](C)[C@H](CN(C)Cc2ccc(C(=O)Nc3ccccc3N)cc2)Oc2ccc(NC(=O)Nc3ccc4c(c3)OCO4)cc2C1=O`, the relative growth is inactive: 0.953.

Regarding `O=C(/C=N/O)Nc1ccccc1C(=O)O`, the relative growth was inactive: 1. Regarding `CNC[C@H]1Oc2ccc(NC(=O)CCN3CCOCC3)cc2CC(=O)N([C@H](C)CO)C[C@@H]1C`, the relative growth is inactive: 1.03. In the case of `C[C@@H]1CCCCO[C@H](CN(C)C(=O)CCCN(C)C)[C@@H](C)CN([C@H](C)CO)C(=O)c2cc(NC(=O)Nc3cccc4ccccc34)ccc2O1`, the relative growth was inactive: 1. The same measure for `C[C@@H]1CN([C@H](C)CO)C(=O)c2cc(NC(=O)Nc3ccc(C(F)(F)F)cc3)ccc2O[C@H]1CN(C)Cc1ccc(C(=O)Nc2ccccc2N)cc1`: inactive: 1.06.

Take `COc1ccc(S(=O)(=O)N(C)C[C@@H]2Oc3ccc(NC(=O)Cn4cnnn4)cc3CC(=O)N([C@H](C)CO)C[C@@H]2C)cc1`: the relative growth was inactive: 1. Turning to `C[C@@H]1CN([C@@H](C)CO)C(=O)c2cc(NC(=O)CCCCCC(=O)Nc3ccccc3N)ccc2O[C@@H]1CN(C)S(C)(=O)=O`, the relative growth was inactive: 0.979. As for `Cc1noc(C)c1S(=O)(=O)N(C)C[C@@H]1Oc2ccc(NC(=O)Nc3ccc4c(c3)OCO4)cc2C(=O)N([C@@H](C)CO)C[C@@H]1C`, the relative growth was inactive: 1.02.

Regarding `COc1ccc(S(=O)(=O)Nc2ccc3c(c2)C(=O)N([C@H](C)CO)C[C@@H](C)[C@H](CN(C)Cc2ccc4c(c2)OCO4)OCCCC[C@@H](C)O3)cc1`, the relative growth is inactive: 0.991. On to `Cc1ccc(S(=O)(=O)N[C@H]2CC[C@@H](CCNC(=O)CN3CCOCC3)O[C@H]2CO)cc1`, for which the relative growth was inactive: 0.996. On to `COC(=O)Cn1c(=N)n(C)c2ccccc21`, for which the relative growth is inactive: 0.979. The same measure for `C[C@@H]1CN([C@H](C)CO)C(=O)c2cc(NC(=O)NC3CCCCC3)ccc2O[C@@H](C)CCCCO[C@@H]1CN(C)Cc1ccncc1`: inactive: 0.996. As for `CCCCNc1ccccc1`, the relative growth is inactive: 0.996.

Turning to `COc1ccc(S(=O)(=O)N2C[C@@H](O)COC[C@H]3O[C@@H](CC(=O)NCCCN(C)C)CC[C@@H]32)cc1`, the relative growth was inactive: 1. Take `COc1ccc(S(=O)(=O)N(C)C[C@H]2Oc3c(NC(=O)NC(C)C)cccc3C(=O)N([C@H](C)CO)C[C@@H]2C)cc1`: the relative growth was inactive: 1.03.

With `C[C@H](CO)N1C[C@H](C)[C@@H](CN(C)C(=O)Nc2cccc3ccccc23)Oc2c(NC(=O)CCCCCC(=O)Nc3ccccc3N)cccc2C1=O`, the relative growth was inactive: 0.994. For the compound `CC(C)NC(=O)Nc1ccc2c(c1)C(=O)N([C@H](C)CO)C[C@H](C)[C@@H](CN(C)Cc1ccc(Cl)c(Cl)c1)OCCCC[C@@H](C)O2`, the relative growth is inactive: 0.985.

As for `Cc1noc(C)c1S(=O)(=O)Nc1ccc2c(c1)CC(=O)N([C@H](C)CO)C[C@@H](C)[C@@H](CN(C)S(=O)(=O)c1ccc(F)cc1)O2`, the relative growth is inactive: 1.01.

As to `C[C@@H]1CN([C@H](C)CO)C(=O)Cc2cc(NC(=O)Nc3ccc(F)cc3)ccc2O[C@@H]1CN(C)Cc1ccc(C(F)(F)F)cc1`, the relative growth is inactive: 1.03. On to `C[C@H]1CN([C@@H](C)CO)C(=O)c2cccc(NS(=O)(=O)c3ccc(F)cc3)c2O[C@@H]1CN(C)Cc1ccc(Oc2ccccc2)cc1`, for which the relative growth was inactive: 1. As for `C[C@H]1CN([C@@H](C)CO)C(=O)Cc2cc(NC(=O)Nc3ccc(C(F)(F)F)cc3)ccc2O[C@@H]1CN(C)C(=O)NC1CCCCC1`, the relative growth was inactive: 0.954. For `C[C@@H]1CN([C@H](C)CO)C(=O)Cc2cc(NC(=O)C3CCCCC3)ccc2O[C@H]1CN(C)C(=O)Nc1cccc2ccccc12` the value was inactive: 0.984.

As for `Nc1ncnc2c1ncn2C1OC(COP(=O)(O)O)C(O)C1O` (stereo unspecified), the relative growth is inactive: 1.05. As for `C[C@H]1CN([C@@H](C)CO)C(=O)c2cccc(NC(=O)Nc3ccc4c(c3)OCO4)c2O[C@@H]1CN(C)C(=O)Nc1ccc(C(F)(F)F)cc1`, the relative growth is inactive: 0.947.

For `C[C@@H]1CCCCO[C@H](CN(C)Cc2ccncc2)[C@@H](C)CN([C@H](C)CO)C(=O)c2cc(NS(C)(=O)=O)ccc2O1`, the relative growth is inactive: 0.978. For the compound `C[C@@H]1CCCCO[C@@H](CN(C)C(=O)Nc2cccc3ccccc23)[C@@H](C)CN([C@@H](C)CO)C(=O)c2cc(NC(=O)NC3CCCCC3)ccc2O1`, the relative growth was inactive: 1.03.

With `COc1ccc(-n2nc(C(=O)NCC(=O)N3CCN(c4ccccc4)CC3)c3ccccc3c2=O)c(OC)c1`, the relative growth was inactive: 1.02. Turning to `C[C@H]1CCCCO[C@H](CN(C)C(=O)Cc2ccccc2)[C@@H](C)CN([C@@H](C)CO)C(=O)c2cc(NC(=O)c3ccccc3)ccc2O1`, the relative growth is inactive: 1.03. In the case of `NCCCCCc1nnc(SCC(N)=O)o1`, the relative growth is inactive: 0.989.

As for `C[C@@H]1CN([C@@H](C)CO)C(=O)c2cccc(NC(=O)c3ccncc3)c2O[C@H]1CN(C)Cc1ccc(C(=O)O)cc1`, the relative growth was inactive: 1.01.

With `COc1ccc(NC(=O)Nc2ccc3c(c2)[C@H]2C[C@@H](CC(=O)NCc4ccncc4)O[C@@H](CO)[C@H]2O3)cc1`, the relative growth was inactive: 1.03. The same measure for `C[C@@H]1CN([C@@H](C)CO)C(=O)c2cc(NC(=O)CCC(F)(F)F)ccc2O[C@H]1CN(C)Cc1ccc(Cl)c(Cl)c1`: inactive: 1; for `Nc1nc(=O)c2ncn(COCCO)c2[nH]1`: inactive: 1; for `CO[C@H](C(=O)N(C)C[C@@H]1OCc2ccccc2-c2c(n(C)c3ccccc23)C(=O)N([C@H](C)CO)C[C@@H]1C)c1ccccc1`: inactive: 0.973.

As for `C[C@@H]1COC(=O)[C@H](CC(=O)OC(C)(C)C)CC=CC[C@@H](CC(=O)N[C@@H](CO)Cc2ccccc2)C(=O)N1`, the relative growth was inactive: 0.996. Turning to `Cc1ccc(S(=O)(=O)Nc2ccc3c(c2)C(=O)N([C@H](C)CO)C[C@@H](C)[C@@H](CN(C)C(=O)c2ccccc2)OCCCC[C@H](C)O3)cc1`, the relative growth is inactive: 1.01. With `O=S(=O)(NCC[C@H]1CC[C@@H](NS(=O)(=O)c2ccccc2Cl)[C@@H](CO)O1)c1ccc(F)cc1`, the relative growth was inactive: 0.952.

Turning to `CC(C)NC(=O)Nc1cccc2c1O[C@@H](CN(C)Cc1ccc3c(c1)OCO3)[C@H](C)CN([C@H](C)CO)C2=O`, the relative growth is inactive: 0.999. Take `CC1(C)CO[C@@H](CC(=O)O)CN1`: the relative growth is inactive: 0.935. Regarding `C[C@@H]1CN([C@H](C)CO)S(=O)(=O)c2ccc(C#CC(C)(C)O)cc2O[C@@H]1CN(C)C(=O)C1CCCCC1`, the relative growth was inactive: 0.947. Regarding `COc1ccc(CN(C)C[C@@H]2Oc3ccc(NC(=O)Nc4ccc(C(F)(F)F)cc4)cc3C(=O)N([C@H](C)CO)C[C@H]2C)cc1`, the relative growth is inactive: 0.972. As to `NC1=NN(c2ccccc2)C(=O)C1`, the relative growth was inactive: 0.896. Take `NC[C@H](c1cccc(F)c1)N1CCCCC1`: the relative growth is inactive: 0.951. Turning to `C[C@@H]1CN([C@H](C)CO)C(=O)Cc2cc(NC(=O)Cc3cn(C)c4ccccc34)ccc2O[C@@H]1CN(C)S(C)(=O)=O`, the relative growth is inactive: 1. Regarding `COCCNC(=O)C[C@@H]1CC[C@H]2[C@@H](COC[C@@H](O)CN2C(=O)Nc2ccc3c(c2)OCO3)O1`, the relative growth is inactive: 0.987. Take `CCNC(=O)CCC(N)C(=O)[O-].[K+]` (stereo unspecified): the relative growth is inactive: 0.934. Consider `C[C@@H]1CN([C@H](C)CO)C(=O)CCCn2nncc2CO[C@H]1CN(C)S(=O)(=O)c1cccc(C#N)c1`, for which the relative growth was inactive: 1.02.

As to `CC(C)NC(=O)N(C)C[C@@H]1Oc2ccc(NC(=O)Nc3ccc4c(c3)OCO4)cc2CC(=O)N([C@@H](C)CO)C[C@H]1C`, the relative growth was inactive: 0.995.

Take `CC[C@@H](C)NC(=O)C1CCNCC1`: the relative growth was inactive: 0.989. Take `CO[C@H]1CN(C)C(=O)c2cc(NC(=O)CC(F)(F)F)ccc2OC[C@@H](C)N(S(=O)(=O)c2cn(C)cn2)C[C@@H]1C`: the relative growth is inactive: 1.02.
